# Reference: PubChem BioAssay
# Inconclusive results, whose numbers are uncertain, are shown with a selection of clear calls. The source made the active and inactive calls.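 How the source made its calls: active means viability at or under a set limit in both replicates, limit being median viability minus 3 SD (cut at about 48% in these data, passing the limit was not always enough); inconclusive means at or under the limit in just one replicate; inactive means at or above the limit in both replicates.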
# Experiment: H69AR cell proliferation blockers – human, duplicate replicates, primary screen (AID 580);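 further: 100% = mean luminescence of untreated wells and 0% = no signal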
# Conditions: H69AR lung tumor cells viability, ATP luminescence, 72 h; at 10 µM; active compounds read low
row,Structure (SMILES),viability
1,CCCCc1oc2ccccc2c1C(=O)c1cc(I)c(OCCN(CC)CC)c(I)c1,inconclusive: 1.29%
2,CCCc1cc(-c2n[nH]c(C)c2-c2ccc(C(=O)OCC)o2)c(O)cc1O,inconclusive: 28%
3,Cc1ccc2nc(NC(=O)C3CCN(S(=O)(=O)c4cccc5nsnc45)CC3)sc2c1,inconclusive: 65.8%
4,CCS(=O)(=O)Nc1ccc(C(=O)CC2(O)C(=O)Nc3ccccc32)cc1 (centres undefined),inactive: 89.5%
5,CCOC(=O)c1ccc(N2C(=O)CC(Sc3nnc(C)s3)C2=O)cc1 (centres undefined),inconclusive: 51%
6,CN1CC=C2C(C#N)=C(N)C(C#N)(C#N)[C@H](c3cccc(Cl)c3)C2C1 (some centres undefined),inconclusive: 54.7%
7,O=C(NCc1ccco1)c1cc2cc3ccc(Cl)cc3nc2o1,active: 2.59%
8,COc1ccc(C2=NOC(C(=O)Nc3cc(Br)ccc3O)C2)cc1OC (centres undefined),inconclusive: 60.1%
9,COc1ccc(CCN(C)CCCC(C#N)(c2cc(OC)c(OC)c(OC)c2)C(C)C)cc1OC (centres undefined),inactive: 95.6%
10,CCCOc1ccc2nc(NC(=O)OC)[nH]c2c1,inconclusive: 26.9%
11,CCn1cnc2cc(NCc3cccc(OC)c3O)ccc21,inactive: 92.3%
12,COc1ccc2nc3oc(C(=O)NC4CCN(Cc5ccccc5)CC4)cc3cc2c1,inactive: 82.6%
13,OC(CN1CCOCC1)Cn1c(-c2cccc(Cl)c2)nc2ccccc21 (centres undefined),inconclusive: 18.5%
14,CC1=C(C(=O)OC2CCCCC2)C(c2ccc(C)o2)C2=C(CC(C)(C)CC2=O)N1 (centres undefined),inconclusive: 50.5%
15,CC1CCc2nn(CC(=O)NCCCN3CCOCC3)cc2C1 (centres undefined),inactive: 90.5%
16,CCOC(=O)CN1CC23C=CC(O2)C(C(=O)NC2CCCC2)C3C1=O (centres undefined),inactive: 98.2%
17,COc1ccccc1NC(=O)N(Cc1ccco1)Cc1cc2c(C)ccc(C)c2[nH]c1=O,inconclusive: 22.1%
18,c1ccc2c(-c3nc(C4CCCCC4)no3)cc(-c3ccncc3)nc2c1,inconclusive: 43.6%
19,COc1cc(NC(=O)c2ccco2)c(OC)cc1NC(=O)CCC(=O)Nc1cc(C)cc(C)c1,inconclusive: 53.1%
20,CCOC(=O)c1c(NC(=O)COC(=O)c2c(C)noc2C)sc2c1CCC2,inconclusive: 47.8%

row,Structure (SMILES),viability
1,C=CCn1c(=O)[nH]c2cc(C(=O)N3CCN(c4cc(C)ccc4C)CC3)ccc2c1=O,active: 41.3%
2,COC(=O)c1[nH]c2ccc(C)cc2c1NC(=O)CN1CCCC(C)(C)C1,inconclusive: 39.1%
3,COc1cccc(Oc2ccc(N)cn2)c1,inactive: 88.1%
4,OC[C@H]1O[C@@H](n2cnc3c(Nc4ccccc4)ncnc32)[C@H](O)[C@@H]1O,inactive: 84.4%
5,COC(=O)Nc1nc2ccc(C(=O)c3ccccc3)cc2[nH]1,inconclusive: 26.1%
6,CCNc1nc(NC(C)C)nc(N(C#N)CCOc2ccc(Cl)cc2Cl)n1,inconclusive: 53.6%
7,Nc1nc(Cl)nc2c1ncn2[C@H]1C[C@H](O)[C@@H](CO)O1,inconclusive: 49.4%
8,Fc1cccc2sc(Nc3nnc(-c4ccco4)o3)nc12,active: 41.2%
9,COc1ccc(-c2ccc(-c3noc(-c4ccccc4OC)n3)c(OC)n2)cc1,inconclusive: 62.9%
10,COc1ccc2c(c1OC)C(=O)OC2C1c2c(cc3c(c2OC)OCO3)CCN1C (centres undefined),inconclusive: 51.7%
11,COCCn1nnnc1C(c1cc2ccc(OC)cc2[nH]c1=O)N1CCc2ccccc2C1 (centres undefined),inactive: 85.6%
12,CC(C)(C)n1nnnc1C(c1ccccc1)N1CCc2ccccc2C1 (centres undefined),inconclusive: 49.3%
13,N=c1c(C(=O)NCc2ccccc2)cc2c(=O)n3ccccc3nc2n1Cc1ccco1,inconclusive: 52.1%
14,C/C(Cl)=C/Cn1c(SCc2ccc(Cl)cc2)nc2c1c(=O)[nH]c(=O)n2C,inconclusive: 54.3%
15,O=C(Nc1ccccc1N1CCN(c2ccc(F)cc2)CC1)c1ccccc1,inactive: 93.8%
16,CCn1nnnc1SCC(=O)N1c2ccccc2CCc2ccccc21,inactive: 86.7%
17,CCOC(=O)N1CCN(CCC(=O)c2ccc(Cl)cc2)CC1,inconclusive: 12.8%
18,CC(=O)O[C@]1(C(C)=O)CC[C@H]2[C@@H]3C[C@H](C)C4=CC(=O)CC[C@]4(C)[C@H]3CC[C@@]21C,inconclusive: 1.8%
19,O=C(Nc1ccc(F)cc1)N(Cc1ccco1)Cc1cc2cc3c(cc2[nH]c1=O)OCO3,inconclusive: 55%
